Laboratory results from PubChem BioAssay AID651812 (National Center for Advancing Translational Sciences (NCATS), 2012).
Out of some 2,100 compounds screened, about 650 (31%) were called active. Inconclusive results, whose numbers are uncertain, are shown with a selection of clear calls. Calls follow the shape of the dose curve; as a rule, active = well fitted inhibition curve with a large enough effect; inconclusive = small, poorly fitted or top-dose-only effect; inactive = flat fitted curve, though single readings scatter. Potencies of inconclusive entries are left out as doubtful fits.
Potency is read from the fitted curve at half-maximal effect; tags tell the direction and shape of the fitted curve.

Assay: qHTS for inhibitors of Vif-A3G interactions: Cherry picks; also: nearly all actives have a fitted effect of over 80% in size
Settings: HeLa A3G-eYFP + Vif (tagged APOBEC3G with the HIV-1 protein that degrades it), 24 h; Potency: eYFP fluorescence increase unless noted; series mostly up to 36.9 µM
Procedure, shortened: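 HeLa cells stably expressing A3G-eYFP and Vif, cultured overnight then exposed to compounds at several concentrations for 24 hours at 37 C, 5% CO2; cellular yellow fluorescence (488 nm ex, 500-530 nm em) imaged on Acumen, MG132 positive control.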
For `CCc1ccc(-c2cc(C(F)(F)F)n3nc(C(=O)Nc4cnn(Cc5ccc(C)cc5)c4)cc3n2)s1`, the Potency was inconclusive [inhibitor, single point]. With `O=C(Cn1c(=O)n(Cc2ccco2)c(=O)c2sc3ccccc3c21)Nc1ccccc1C(F)(F)F` the Potency was inconclusive [inhibitor, partial curve]. In the case of `CCCN1CCc2c(sc(NC(=O)c3ccc(S(=O)(=O)N4CCN(C(=O)OCC)CC4)cc3)c2C(N)=O)C1`, the Potency is reported as inconclusive [inhibitor, single point]. In the case of `CCN(CC)c1ccc(/C=C2\C(=N)N3N=C(CC(=O)N4CCOCC4)SC3=NC2=O)cc1`, the Potency is reported as active: 0.177 µM. In the case of `CCOc1ccc(NC(=O)Cn2c(=O)n(Cc3ccc(C(=O)NCc4ccc(C)cc4)cc3)c(=O)c3ccccc32)cc1`, the Potency is reported as inconclusive [inhibitor, partial curve]. For `C=C1C(=O)O[C@H]2C1CC[C@@](C)(O)C13C=CC(C)(C21)C1(C3)C(=O)O[C@@H]2C3C(C)=CCC3[C@](C)(O)C[C@H](OC(C)=O)C21` (stereo partly specified), the Potency was “inactive”. For `COc1cc(/C=C2\CC(C(C)(C)C)C/C(=C\c3cc(OC)c(OC)c(OC)c3)C2=O)cc(OC)c1OC` (stereo unspecified), the Potency was inconclusive [inhibitor, single point]. With `Cc1ccc(C(=O)N/C(=C/c2ccc(-c3ccc([N+](=O)[O-])cc3)o2)C(=O)NCCCN(C)C)cc1` the Potency was inconclusive [inhibitor, single point]. In the case of `COCCN1C(=O)/C(=C/c2ccc(N3CCCC3)cc2C)SC1=S`, the Potency is reported as active: 2.59 µM. With `CC(C)OC(=O)c1cc(C(=O)c2cc(F)ccc2O)coc1=N` the Potency was active: 20.6 µM. With `Cc1ccc(NC(=O)CSc2nc3ccc(Nc4nc(N5CCOCC5)nc(N5CCOCC5)n4)cc3s2)cc1` the Potency was inconclusive [inhibitor, single point]. With `CS(=O)(=O)Nc1ccc(C2=NN(S(C)(=O)=O)C(c3ccc4c(c3)OCO4)C2)cc1` (stereo unspecified) the Potency was inconclusive [inhibitor, single point]. For `COc1ccc(-c2cc(-c3cccs3)nc3sc(C#N)c(N)c23)cc1`, the Potency was active: 16.4 µM. With `CCOC(=O)/C(C#N)=N\Nc1cc(Cl)ccc1OC` the Potency was inconclusive [inhibitor, single point]. In the case of `O=C(/C=C/c1ccco1)NC(=S)Nc1ccc(N2CCCC2)cc1`, the Potency is reported as “inactive”. In the case of `CCCC1=Nc2cc(C(=O)NCc3ccco3)ccc2Sc2ccccc21`, the Potency is reported as “inactive”. For `COc1cc(/C=C2\SC(=S)N(CCC(=O)Nc3ccccn3)C2=O)cc(OC)c1OC`, the Potency was inconclusive [inhibitor, single point]. In the case of `COc1ccc2c(n1)Sc1nc3ccccc3nc1N2`, the Potency is reported as inconclusive [inhibitor, single point]. For `Cc1ccc(Nc2nc(Cl)c(C=O)s2)cc1Cl`, the Potency was active: 16.4 µM. In the case of `Cc1ccc(C)c(NC(=O)Cn2cc(S(=O)(=O)Cc3cccc(Cl)c3)c3ccccc32)c1`, the Potency is reported as inconclusive [inhibitor, single point]. In the case of `N#CC(C(=O)NCc1ccccc1)c1nc2ccccc2nc1N1CCCC1` (stereo unspecified), the Potency is reported as active: 18.4 µM. With `CCc1cc[n+](-c2nc3ccccc3nc2[N-]S(=O)(=O)c2ccc(Br)s2)cc1` the Potency was active: 20.6 µM. With `COc1ccc(-c2csc(NC(=S)NC(=O)/C=C/c3ccco3)n2)cc1Br` the Potency was inconclusive [inhibitor, single point]. For `Cc1ccc(-n2nc3c(N4CCCC(C(=O)NCc5ccccc5C)C4)nnc(C)c3c2C)cc1` (stereo unspecified), the Potency was inconclusive [inhibitor, single point]. In the case of `O=C(NCc1ccccc1)C(=O)NCC1COc2ccccc2O1` (stereo unspecified), the Potency is reported as “inactive”. In the case of `Cc1c(C(=O)OC/C(O)=C(\C#N)c2nc3ccccc3[nH]2)oc2ccccc12`, the Potency is reported as inconclusive [inhibitor, single point]. For `CCOc1cc(Br)cc(/C=C2\SC(=Nc3ccccc3)NC2=O)c1O`, the Potency was “inactive”. In the case of `COC(=O)/C(=C\Nc1ccc(Cl)cc1Cl)NC(=O)c1ccc(OC)cc1`, the Potency is reported as “inactive”. For `O=C(Nc1ccc(Cl)cc1)Nc1ccon1`, the Potency was “inactive”. In the case of `O=S(=O)(Nc1nc2ccccc2nc1Nc1cccc(S(=O)(=O)N2CCCCC2)c1)c1ccccc1`, the Potency is reported as inconclusive [inhibitor, single point]. In the case of `COc1ccccc1CNC(=O)c1ccc2nc3[nH]c4ccccc4c3nc2c1`, the Potency is reported as inconclusive [inhibitor, single point]. For `CC(/C=C/c1ccc(N(C)C)cc1)=N\N=C(/N)SC1CC(=O)N(c2ccc(C(=O)O)cc2)C1=O` (stereo unspecified), the Potency was inconclusive [inhibitor, single point]. For `CC(C)(C)c1ccc(OCC(=O)Nc2ccc3c4c(cccc24)C(=O)NC3=O)cc1`, the Potency was inconclusive [inhibitor, single point]. For `CCN(CC)c1cc(C)c(/C=C/c2ccnc3ccccc23)cc1C`, the Potency was inconclusive [inhibitor, single point]. In the case of `Cc1nn(Cc2c(Cl)cccc2Cl)c(C)c1NC(=O)c1cc(C(C)C)on1`, the Potency is reported as inconclusive [inhibitor, single point]. For `COC(=O)c1ccc(Nc2c([N+](=O)[O-])ccc3nonc23)cc1`, the Potency was active: 20.6 µM. For `N#CC1=C(N)C(C#N)(C#N)[C@H](c2c(F)cccc2F)[C@H]2CC3(CC=C12)OCCO3`, the Potency was inconclusive [inhibitor, partial curve, poor fit]. In the case of `O=C(C[C@@H]1C/C=C/CC[C@H](Cc2ccc(F)cc2)C(=O)OC[C@@H](Cc2ccccc2)NC1=O)N[C@H](CO)Cc1ccccc1`, the Potency is reported as inconclusive [inhibitor, single point]. For `C/C(=N\NC(=S)NCc1ccccc1)c1cccs1`, the Potency was “inactive”. For `Cc1cc(C)cc(NC(=O)Cn2c(=O)oc3cc(S(=O)(=O)N4CCC(C)CC4)ccc32)c1`, the Potency was inconclusive [inhibitor, single point]. For `COc1ccccc1/C=C/C=N/NC(=O)c1cc(-c2ccc(C)o2)[nH]n1`, the Potency was “inactive”.
